Hit rate of the full screen: of about 140,000 compounds, about 240 (0.17%) were called active. Inconclusive results, whose numbers are uncertain, are shown with a selection of clear calls. Calls come from the whole dose curve; as a rule, active = well fitted inhibition curve with a large enough effect; inconclusive = small, poorly fitted or top-dose-only effect; inactive = no such curve, though single readings can be large or run the other way. Where the call is inconclusive, the potency comes from a doubtful curve fit.
Test: Primary qHTS assay for inhibitors of alpha-synuclein gene (SNCA) expression; note: nearly all actives have a fitted effect of over 45% in size;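 for activity change, negative = inhibition: plate controls were DMSO cells for no effect and cell-free wells for full effect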
Conditions: HEK-293 SNCA-luciferase knock-in, luminescence, 24 h; activity change, negative = inhibition: at 57.2 µM (top of the series) unless noted
Potency is the fitted concentration of half-maximal effect; tags give direction and shape of the fitted curve.

Row | SMILES | Potency | activity change, negative = inhibition
1 | CCOC(=O)c1ccc(N2C(=O)c3[nH]nc(-c4ccccc4)c3C2c2ccc(CC)cc2)cc1 (stereo unspecified) | inconclusive: 39.8 µM [inhibitor, single point] | 
2 | CCN1C(=O)COC[C@@H]1[C@H](O)c1ccc(NC(=O)c2ccnc(Cl)c2)cc1 | inconclusive: 6.31 µM [inhibitor, partial curve, poor fit] | 
3 | O=C(CCC1CC1)N1CCN(c2ncnc3ccsc23)CC(O)C1 (stereo unspecified) | inconclusive: 15.8 µM [inhibitor, single point] | 
4 | Cc1c(Cl)cccc1NC(=O)CC1Oc2ccccc2NC1=O (stereo unspecified) | inconclusive: 39.8 µM [inhibitor, single point] | 
5 | Cc1cc(C)n(-c2cccc(CN(C)C(=O)c3cn(Cc4ccc(Cl)cc4)nn3)c2)n1 |  | inactive: -25%
6 | O=C(NCc1cccs1)c1ccc2c(=O)n3nc(Nc4ccccc4)sc3nc2c1 | inconclusive: 1 µM [inhibitor, partial curve, poor fit] | 
7 | CCN(c1ccccc1)S(=O)(=O)c1ccc(NC(=O)c2nc(SC)ncc2Cl)cc1 | inconclusive: 39.8 µM [inhibitor, single point] | 
8 | CC1C(=O)Nc2ccc(S(=O)(=O)N3CCCCC3)cc2NC1=O (stereo unspecified) |  | inactive: -27.5%
9 | CN(C)C[C@@H]1CN(C)C[C@H]1NC(=O)c1ccccc1C(F)(F)F |  | inactive: -10.7%
10 | CCOC(=O)c1cc(-c2ccc(OC)cc2)n(CCC(=O)Nc2ccccc2OC)c1C | inconclusive: 39.8 µM [inhibitor, single point] | 
11 | COc1ccc(-c2nc(SCC(=O)NC3CCCC3)c(-c3ccc(F)cc3)[nH]2)cc1 | inconclusive: 39.8 µM [inhibitor, single point] | 
12 | CC(C)(C)OC(=O)N1CCC(c2c(C(=O)NCc3cccc(Cl)c3)cnn2-c2ccc(F)cc2)CC1 | inconclusive: 39.8 µM [inhibitor, single point] | 
13 | CCOc1ccc(CN2CCc3nc(N4CCN(c5ccccc5OC)CC4)ncc3C2)cc1OC | inconclusive: 28.2 µM [inhibitor, single point] | 
14 | COc1ccc(CN2CCCCCNC(=O)CC2c2ccccc2)cc1Cc1c(C)noc1C (stereo unspecified) |  | inactive: 1.34%
15 | COCCCn1c(C)cc(C(=O)N2CCC(CCOc3ccccc3)C2)c1C (stereo unspecified) | inconclusive: 28.2 µM [inhibitor, single point] | 
16 | CC1(c2cccnc2)N(CC2CC2)C(=O)OC12CCN(C(=O)c1cccc(O)c1)CC2 (stereo unspecified) |  | inactive: 1.29% [at 87.6 µM]
17 | CNC(=O)c1cc(-c2ccc(CO)cc2)cc2c1OCCN2Cc1cccnc1 |  | inactive: 3.01% [at 87.6 µM]
18 | CN(C)Cc1nnc(C2CC(NC(=O)c3nc4ccccc4[nH]3)C2)n1C (stereo unspecified) |  | inactive: 10.6%
19 | COc1ccc(CNS(=O)(=O)c2ccc(N3CCCCS3(=O)=O)cc2)cc1 | inconclusive: 39.8 µM [inhibitor, single point] | 
20 | CCCNC(=O)N1CCC(OCCOc2cccnc2)CC1 | inconclusive: 28.2 µM [inhibitor, single point] | 
21 | COc1ccc(C(=O)N2CCCN(c3cc(-c4ccccc4)[nH]n3)CC2)c(C)c1 | inconclusive: 14.1 µM [inhibitor, partial curve, poor fit] | 
22 | CCCc1noc(-c2cn(C3CCN(C(=O)c4ccco4)CC3)nn2)n1 | inconclusive: 0.708 µM [inhibitor, full curve, poor fit] | 

Row | SMILES | Potency | activity change, negative = inhibition
23 | O=C(Cc1ccccc1)NCC1CCCCC(=O)N1 (stereo unspecified) | inconclusive: 11.2 µM [inhibitor, partial curve, poor fit] | 
24 | COCCN(Cc1cccs1)S(=O)(=O)c1cc(-c2cc(C)no2)ccc1C |  | inactive: -25%
25 | Cc1ccccc1Nc1cc(C(=O)NCCCN2CCN(c3cccc(Cl)c3)CC2)c2ccccc2n1 | inconclusive: 39.8 µM [inhibitor, single point] | 
26 | Cc1cc(Cl)ccc1-c1ccc(CN)cc1 | inconclusive: 56.2 µM [inhibitor, single point] | 
27 | Fc1ccc(F)c(CN2CCC(Oc3ccccc3-c3nc(C4CCOCC4)no3)C2)c1 (stereo unspecified) | inconclusive: 39.8 µM [inhibitor, single point] | 
28 | O=C1[C@H]2CN(Cc3ccc(Cl)cc3)C[C@H]2C(=O)N1Cc1ccc2c(c1)OCO2 | inconclusive: 39.8 µM [inhibitor, single point] | 
29 | CN1C(=O)C(c2ccccc2)CC12CCN(Cc1ccc(F)c(F)c1)CC2 (stereo unspecified) |  | inactive: 19.5%
30 | O=C(Cc1cccc(Cl)c1)N1CCN(C(=O)c2nc3cccnc3n(CCc3ccccc3)c2=O)CC1 |  | inactive: -5.37%
31 | CCOC(=O)c1c(NC(=O)C(C)Sc2cn(CCNC(=O)c3c(F)cccc3F)c3ccccc23)sc2c1CCC2 (stereo unspecified) | inconclusive: 1.58 µM [inhibitor, full curve, poor fit] | 
32 | Cc1ccc(S(=O)(=O)N2CCCC(CCC(=O)N3CCCCC3)C2)cc1 (stereo unspecified) |  | inactive: 0.286%
33 | COc1ccc(OC)c(NC(=O)CSc2ccc(-c3cccs3)nn2)c1 | inconclusive: 28.2 µM [inhibitor, partial curve, poor fit] | 
34 | Cc1ccc(Cn2c(C(=O)O)c(CNCc3ccc(OC(C)C)cc3)c3ccc(C)cc32)cc1 | inconclusive: 12.6 µM [inhibitor, partial curve, poor fit] | 
35 | Cc1ccc(C(=O)N2CCC(C3CCN(S(C)(=O)=O)CC3)C2)c(=O)[nH]1 (stereo unspecified) | inconclusive: 39.8 µM [inhibitor, single point] | 
36 | CCOc1ccccc1NC(=O)NCc1ccc2c(c1)CCN2C(=O)c1ccccc1 | inconclusive: 31.6 µM [inhibitor, single point] | 
37 | O=S(=O)(CCNc1cc(C2CC(O)C2)ncn1)c1ccc(F)cc1 (stereo unspecified) | inconclusive: 5.01 µM [inhibitor, single point] | 
38 | O=C(NCC1CCCO1)c1ccc2oc(-c3ccc(C(F)(F)F)cc3)nc2c1 (stereo unspecified) |  | inactive: 87.7%
39 | CCOC(=O)c1ccc(N2C(=O)c3n[nH]c(-c4cccs4)c3C2c2ccc(OCC)cc2)cc1 (stereo unspecified) | inconclusive: 25.1 µM [inhibitor, single point] | 
40 | CNC(=O)CCn1ncc2cc(OCc3ccccc3-c3ccccc3C)ccc21 |  | inactive: -29.9% [at 87.6 µM]
41 | O=C(Cc1ccccc1)N1CCCC2(CC(c3cccc(C(F)(F)F)c3)=NO2)C1 (stereo unspecified) |  | inactive: 108%
42 | COc1ccccc1OCCNC(=O)C1CCN(c2cc(C(F)(F)F)nc(C)n2)CC1 |  | inactive: -14.5%
43 | CC(=O)Nc1ccc(CN2CCC3(CC2)CC(c2cccc(C(F)(F)F)c2)=NO3)cc1 | inconclusive: 35.5 µM [inhibitor, single point] | 
44 | Cn1cc(CN2C[C@H](C(=O)Nc3ccc(F)cc3)C[C@H]2c2cccc(C(F)(F)F)c2)cn1 | inconclusive: 39.8 µM [inhibitor, single point] | 

Row | SMILES | Potency | activity change, negative = inhibition
45 | C=CCNC(=O)c1cnn2c1CN(C(=O)c1ccccc1F)CC2 | inconclusive: 22.4 µM [inhibitor, partial curve, poor fit] | 
46 | Cc1cc(Cl)ccc1NC(=O)Cn1nnc2sc(-c3ccccc3)cc2c1=O | inconclusive: 31.6 µM [inhibitor, single point] | 
47 | COc1ccc2[nH]c3c(c2c1)CCNC31CCN(C(=O)C2CCN2C2CCCCC2)CC1 (stereo unspecified) | inconclusive: 39.8 µM [inhibitor, single point] | 
48 | COc1ccc2nc([C@H]3CCN(Cc4cccc(Cl)c4)C3)[nH]c2c1 | inconclusive: 6.31 µM [inhibitor, full curve] | 
49 | COc1cccc(-c2ccccc2NC(=O)C2CCN(CC(=O)O)CC2)c1 |  | inactive: 28.9%
50 | O=C(NCCCc1nc2ccccc2n1Cc1ccc(Cl)cc1)C1CCCCC1 | inconclusive: 25.1 µM [inhibitor, single point] | 
51 | Cn1ncc2c(C(=O)N3CCOCC3)cc(-c3ccc(Cl)cc3)nc21 |  | inactive: -12.3%
52 | CCc1ccccc1-n1c(C)nc2cc(C(=O)NCCc3ccc(Cl)cc3)ccc21 | inconclusive: 12.6 µM [inhibitor, partial curve, poor fit] | 
53 | N#Cc1cccnc1-c1ccc(C(=O)N2CCC(NC(=O)Cc3ccccn3)CC2)cc1 | inconclusive: 3.55 µM [inhibitor, partial curve, poor fit] | 
54 | Cc1ccn(CC(=O)N2CC(F)(F)C[C@H]2c2nc(C3CC3)no2)n1 | inconclusive: 17.8 µM [inhibitor, single point] | 
55 | Cc1ccc(CNC(=O)Cc2c(C)c3c(cc(C)c4c(C)coc43)oc2=O)cc1 |  | inactive: -5.21%
56 | COc1ccc(-n2c(C)c(C(C)=O)c3cc(OC(=O)COc4ccccc4)ccc32)cc1 | inconclusive: 12.6 µM [inhibitor, partial curve, poor fit] | 
57 | CCCCCn1c(CCNC(=O)c2ccc(F)cc2)nc2ccccc21 | inconclusive: 31.6 µM [inhibitor, single point] | 
58 | Cc1cc(F)ccc1OC1CN(C(=O)c2ccccc2)C1 |  | inactive: 207% [at 87.6 µM]
59 | CCN1CCN(C[C@@H]2CN(Cc3ccccc3OC(F)F)C[C@@H]2CO)CC1 | inconclusive: 1.26 µM [inhibitor, full curve, poor fit] | 
60 | O=C(c1ccc2c(c1)OCO2)N1CCn2c(nnc2-c2ccncc2)C1 | inconclusive: 31.6 µM [inhibitor, partial curve, poor fit] | 
61 | O=C(c1ccccc1F)N1CCCC2(C1)NC(=O)N(Cc1ccc(Cl)cc1)C2=O (stereo unspecified) | inconclusive: 3.16 µM [inhibitor, single point] | 
62 | O=c1n(-c2cccc(Cl)c2)nc2n1CCN(Cc1cccc3ccccc13)C2 |  | inactive: -9.99%
63 | CCc1nc2c(c(-c3ccc(O)cc3)n1)CCN(Cc1cccc(OC)c1)CC2 |  | inactive: 7.49%
64 | COC(=O)CNC(=O)c1cc(-c2ccccc2OC)c2nncn2n1 |  | inactive: 44.4%
65 | O=C(NCc1cccs1)c1cc(-c2cccs2)c2cccn2n1 |  | inactive: 41.9%
66 | CCC(=O)N1CCCN(CCN(C)C)c2ccccc21 |  | inactive: 0.391%

Reference: PubChem BioAssay AID1671194 (National Center for Advancing Translational Sciences (NCATS), 2021)
